From paper PMC11707394
Results are given in words; binding and its absence hold for the method and conditions named. Binding seen in cells or lysates may run through a third protein. Some entries that bind do so weakly or less than the wild type. Values belong to the substance of their own block, whether it stands above or below them.

Chains of the proteins cited; added tags and fusions are not shown. Lines headed by an entry give the natural chain unless they say otherwise; changes in a name come on top. A line that says so, or that is headed by a name, gives the form on record, which may keep a tag or linker.
UniProt Q9H9B1: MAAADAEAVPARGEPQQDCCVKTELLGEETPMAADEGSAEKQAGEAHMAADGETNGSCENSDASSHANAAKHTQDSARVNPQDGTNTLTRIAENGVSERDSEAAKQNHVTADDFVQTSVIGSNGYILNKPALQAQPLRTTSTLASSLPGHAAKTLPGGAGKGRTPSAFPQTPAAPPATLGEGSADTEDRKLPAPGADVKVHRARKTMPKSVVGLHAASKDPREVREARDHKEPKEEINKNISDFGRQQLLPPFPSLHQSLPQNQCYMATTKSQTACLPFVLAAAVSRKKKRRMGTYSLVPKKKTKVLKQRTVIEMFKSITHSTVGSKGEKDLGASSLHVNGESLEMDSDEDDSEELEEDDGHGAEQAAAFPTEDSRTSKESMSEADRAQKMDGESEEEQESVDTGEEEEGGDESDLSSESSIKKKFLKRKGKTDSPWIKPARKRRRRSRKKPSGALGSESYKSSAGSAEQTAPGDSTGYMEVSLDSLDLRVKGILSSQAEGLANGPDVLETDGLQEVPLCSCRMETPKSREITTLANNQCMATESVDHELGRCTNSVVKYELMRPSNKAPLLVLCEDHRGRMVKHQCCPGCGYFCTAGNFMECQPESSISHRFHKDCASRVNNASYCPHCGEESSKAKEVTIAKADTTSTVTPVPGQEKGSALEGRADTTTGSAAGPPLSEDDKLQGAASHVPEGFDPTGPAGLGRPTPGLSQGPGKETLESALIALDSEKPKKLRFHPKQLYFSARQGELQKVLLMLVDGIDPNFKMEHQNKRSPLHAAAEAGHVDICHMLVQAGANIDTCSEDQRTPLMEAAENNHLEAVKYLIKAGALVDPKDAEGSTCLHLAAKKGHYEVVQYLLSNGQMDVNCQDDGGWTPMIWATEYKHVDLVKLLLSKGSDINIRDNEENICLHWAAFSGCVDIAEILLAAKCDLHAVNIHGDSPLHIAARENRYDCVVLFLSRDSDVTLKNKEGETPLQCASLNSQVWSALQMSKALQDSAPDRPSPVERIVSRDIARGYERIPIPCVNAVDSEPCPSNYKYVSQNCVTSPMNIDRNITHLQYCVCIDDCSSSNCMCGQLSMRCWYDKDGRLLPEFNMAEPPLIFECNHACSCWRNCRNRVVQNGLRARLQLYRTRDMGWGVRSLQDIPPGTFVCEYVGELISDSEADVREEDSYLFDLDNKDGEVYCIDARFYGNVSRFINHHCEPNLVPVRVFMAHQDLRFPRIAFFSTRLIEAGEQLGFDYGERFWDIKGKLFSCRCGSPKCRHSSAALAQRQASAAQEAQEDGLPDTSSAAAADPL
UniProt Q9Z148: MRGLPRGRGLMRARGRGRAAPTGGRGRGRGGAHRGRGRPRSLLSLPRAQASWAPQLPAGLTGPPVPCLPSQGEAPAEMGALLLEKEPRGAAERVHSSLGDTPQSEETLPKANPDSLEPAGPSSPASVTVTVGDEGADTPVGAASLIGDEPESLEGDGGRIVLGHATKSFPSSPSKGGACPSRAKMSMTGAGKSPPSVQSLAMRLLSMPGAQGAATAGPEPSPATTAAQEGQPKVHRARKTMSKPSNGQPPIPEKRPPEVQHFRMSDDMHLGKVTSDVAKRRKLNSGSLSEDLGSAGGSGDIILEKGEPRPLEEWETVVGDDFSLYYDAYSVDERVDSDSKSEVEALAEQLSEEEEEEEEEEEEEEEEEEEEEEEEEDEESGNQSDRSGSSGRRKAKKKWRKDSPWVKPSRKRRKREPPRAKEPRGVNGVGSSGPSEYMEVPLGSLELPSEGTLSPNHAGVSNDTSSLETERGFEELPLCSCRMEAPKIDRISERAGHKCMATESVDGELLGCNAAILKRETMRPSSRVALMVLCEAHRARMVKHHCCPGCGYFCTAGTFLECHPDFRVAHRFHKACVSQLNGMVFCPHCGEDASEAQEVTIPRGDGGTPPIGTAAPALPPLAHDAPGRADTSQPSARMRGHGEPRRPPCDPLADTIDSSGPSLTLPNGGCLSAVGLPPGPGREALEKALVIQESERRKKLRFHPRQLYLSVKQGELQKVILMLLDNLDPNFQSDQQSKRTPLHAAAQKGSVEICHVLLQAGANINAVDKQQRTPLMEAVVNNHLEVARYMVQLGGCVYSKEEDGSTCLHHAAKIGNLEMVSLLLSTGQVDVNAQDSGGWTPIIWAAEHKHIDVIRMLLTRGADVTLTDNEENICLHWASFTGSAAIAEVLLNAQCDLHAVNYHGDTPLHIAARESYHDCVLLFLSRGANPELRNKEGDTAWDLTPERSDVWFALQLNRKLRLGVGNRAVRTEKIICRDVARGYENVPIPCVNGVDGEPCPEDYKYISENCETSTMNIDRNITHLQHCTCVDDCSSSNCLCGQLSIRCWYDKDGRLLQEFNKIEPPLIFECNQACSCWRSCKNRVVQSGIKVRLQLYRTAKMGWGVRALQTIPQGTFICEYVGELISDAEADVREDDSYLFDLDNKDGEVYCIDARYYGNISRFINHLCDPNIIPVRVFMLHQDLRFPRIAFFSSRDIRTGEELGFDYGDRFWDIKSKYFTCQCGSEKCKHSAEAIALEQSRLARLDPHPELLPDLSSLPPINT
UniProt Q9BZ95: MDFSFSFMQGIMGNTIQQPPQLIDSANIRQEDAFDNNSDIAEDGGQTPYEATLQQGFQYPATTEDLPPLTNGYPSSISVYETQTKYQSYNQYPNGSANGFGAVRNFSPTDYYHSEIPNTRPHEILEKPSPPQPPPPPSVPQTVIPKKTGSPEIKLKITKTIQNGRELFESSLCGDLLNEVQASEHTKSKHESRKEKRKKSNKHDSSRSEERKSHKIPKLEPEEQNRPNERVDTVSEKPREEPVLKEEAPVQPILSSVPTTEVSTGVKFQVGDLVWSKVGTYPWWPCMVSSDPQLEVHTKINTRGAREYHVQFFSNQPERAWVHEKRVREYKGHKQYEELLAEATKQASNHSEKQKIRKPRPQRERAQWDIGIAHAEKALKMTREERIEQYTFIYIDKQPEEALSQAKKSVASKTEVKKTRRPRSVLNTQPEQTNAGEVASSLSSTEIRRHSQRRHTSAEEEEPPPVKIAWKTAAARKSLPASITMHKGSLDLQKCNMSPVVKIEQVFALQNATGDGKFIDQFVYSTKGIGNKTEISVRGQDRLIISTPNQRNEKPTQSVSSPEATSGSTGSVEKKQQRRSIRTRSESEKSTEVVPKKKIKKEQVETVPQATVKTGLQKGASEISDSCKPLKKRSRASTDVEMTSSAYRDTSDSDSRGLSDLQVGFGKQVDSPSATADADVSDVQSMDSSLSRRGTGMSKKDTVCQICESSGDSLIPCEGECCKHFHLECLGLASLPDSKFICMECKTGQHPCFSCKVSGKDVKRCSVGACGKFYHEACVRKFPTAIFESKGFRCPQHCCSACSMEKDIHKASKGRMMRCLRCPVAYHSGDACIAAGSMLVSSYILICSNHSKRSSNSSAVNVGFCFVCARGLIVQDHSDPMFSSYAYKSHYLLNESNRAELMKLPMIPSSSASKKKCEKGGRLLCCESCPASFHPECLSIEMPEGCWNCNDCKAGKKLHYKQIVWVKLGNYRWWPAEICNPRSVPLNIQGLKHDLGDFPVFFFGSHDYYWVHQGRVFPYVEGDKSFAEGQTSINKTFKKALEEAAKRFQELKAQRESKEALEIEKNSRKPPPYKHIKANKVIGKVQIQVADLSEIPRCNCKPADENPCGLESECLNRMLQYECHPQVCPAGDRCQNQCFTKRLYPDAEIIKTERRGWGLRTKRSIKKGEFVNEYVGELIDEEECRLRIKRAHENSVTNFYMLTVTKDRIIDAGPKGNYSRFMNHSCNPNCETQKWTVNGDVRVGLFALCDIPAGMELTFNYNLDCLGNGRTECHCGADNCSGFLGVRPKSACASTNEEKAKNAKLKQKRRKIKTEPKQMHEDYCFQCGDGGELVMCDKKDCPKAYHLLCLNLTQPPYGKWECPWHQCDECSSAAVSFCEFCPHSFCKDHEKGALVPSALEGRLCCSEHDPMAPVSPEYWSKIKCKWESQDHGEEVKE
NSD3-short isoform (NSD3S), endogenous in V-H9-hESCs (Q9BZ95-3, form named): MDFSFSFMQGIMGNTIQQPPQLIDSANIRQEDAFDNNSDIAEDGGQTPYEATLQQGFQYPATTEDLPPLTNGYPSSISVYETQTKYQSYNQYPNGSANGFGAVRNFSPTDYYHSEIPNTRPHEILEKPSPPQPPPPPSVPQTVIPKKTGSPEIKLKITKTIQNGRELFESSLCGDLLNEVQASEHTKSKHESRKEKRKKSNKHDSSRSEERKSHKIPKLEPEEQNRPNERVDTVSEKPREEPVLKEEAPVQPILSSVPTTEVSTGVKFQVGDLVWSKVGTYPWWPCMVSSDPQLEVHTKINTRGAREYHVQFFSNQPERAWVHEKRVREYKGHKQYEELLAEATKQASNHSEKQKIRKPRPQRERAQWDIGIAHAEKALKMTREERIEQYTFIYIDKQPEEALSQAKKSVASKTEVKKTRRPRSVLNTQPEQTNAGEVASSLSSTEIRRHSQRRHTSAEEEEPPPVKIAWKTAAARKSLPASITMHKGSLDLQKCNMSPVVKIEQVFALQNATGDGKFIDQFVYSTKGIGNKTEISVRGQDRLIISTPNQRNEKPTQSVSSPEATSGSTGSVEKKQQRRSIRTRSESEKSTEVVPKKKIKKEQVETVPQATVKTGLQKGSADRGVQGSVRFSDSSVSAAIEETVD
EGFP-NSD3L delta PWWP (PWWP-deleted NSD3-long isoform fused with EGFP) (Q9BZ95, form named): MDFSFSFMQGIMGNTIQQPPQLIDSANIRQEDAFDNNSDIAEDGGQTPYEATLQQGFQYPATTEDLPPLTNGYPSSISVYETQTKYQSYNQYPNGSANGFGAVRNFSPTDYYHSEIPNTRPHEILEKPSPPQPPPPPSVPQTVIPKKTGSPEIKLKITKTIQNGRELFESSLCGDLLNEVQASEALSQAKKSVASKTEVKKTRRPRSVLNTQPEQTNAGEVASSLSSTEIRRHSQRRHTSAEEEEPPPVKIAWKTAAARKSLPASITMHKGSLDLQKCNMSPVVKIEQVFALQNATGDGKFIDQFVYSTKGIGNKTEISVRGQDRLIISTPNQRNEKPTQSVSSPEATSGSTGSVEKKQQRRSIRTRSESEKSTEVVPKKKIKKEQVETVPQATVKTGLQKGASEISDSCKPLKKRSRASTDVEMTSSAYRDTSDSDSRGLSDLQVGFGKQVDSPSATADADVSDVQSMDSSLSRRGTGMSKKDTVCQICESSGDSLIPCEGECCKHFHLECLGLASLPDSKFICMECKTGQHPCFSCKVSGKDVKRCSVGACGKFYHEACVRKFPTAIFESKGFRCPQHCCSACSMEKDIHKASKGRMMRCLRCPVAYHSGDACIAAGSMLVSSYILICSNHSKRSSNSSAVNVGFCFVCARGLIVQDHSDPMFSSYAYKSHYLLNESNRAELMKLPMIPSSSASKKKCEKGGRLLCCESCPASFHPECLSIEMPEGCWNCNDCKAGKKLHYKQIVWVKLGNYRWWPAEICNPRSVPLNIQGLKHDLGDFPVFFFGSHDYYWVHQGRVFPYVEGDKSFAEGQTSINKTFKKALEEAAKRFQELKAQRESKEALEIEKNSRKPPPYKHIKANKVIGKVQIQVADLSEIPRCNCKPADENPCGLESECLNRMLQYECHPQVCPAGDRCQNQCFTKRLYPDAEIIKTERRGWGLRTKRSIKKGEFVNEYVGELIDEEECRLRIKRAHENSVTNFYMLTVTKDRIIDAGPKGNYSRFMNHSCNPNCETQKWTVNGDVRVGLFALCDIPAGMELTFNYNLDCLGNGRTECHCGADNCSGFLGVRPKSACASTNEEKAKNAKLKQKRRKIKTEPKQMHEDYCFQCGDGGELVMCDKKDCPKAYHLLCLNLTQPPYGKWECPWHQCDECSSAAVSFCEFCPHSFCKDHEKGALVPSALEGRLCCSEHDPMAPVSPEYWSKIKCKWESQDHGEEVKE

How the values were obtained:
[1] = biological target: EHMT1, endogenous in 293 cells (human (endogenous in HEK293)) (UniProt Q9H9B1); assay: co-IP; endogenous proteins of 293 cells; IP with anti-EHMT1, anti-EHMT2 or anti-NSD3 antibody, immunoblot for the partner
[2] = biological target: EHMT1 (euchromatic histone methyltransferase 1), endogenous in V-H9-hESCs (human (endogenous in V-H9-hESC)) (UniProt Q9H9B1); assay: co-IP; endogenous proteins; anti-EHMT1 or anti-EHMT2 antibody on Protein A or G Dynabeads, V-H9-hESC lysate overnight at 4°C; immunoblot with anti-NSD3
Flag-EHMT2 (mouse) = Flag-EHMT2 (mouse) (UniProt Q9Z148); assay: co-IP; 293 cells co-transfected with tagged plasmids; IP by anti-V5, anti-Flag or anti-GFP antibody on Protein A or G Dynabeads, lysate overnight at 4°C; immunoblot for the partner's tag or NSD3
V5-EHMT1 = V5-EHMT1 (UniProt Q9H9B1); assay: as above
[3] = biological target: EHMT2-GFP (mouse EHMT2 full length in EGFPC1) (mouse) (UniProt Q9Z148); assay: as above
[4] = biological target: EGFP-NSD3L (NSD3-long isoform fused with EGFP) (human) (UniProt Q9BZ95); assay: as above
[5] = biological target: EGFP-NSD3L delta PWWP (PWWP-deleted NSD3-long isoform fused with EGFP) (human) (UniProt Q9BZ95); assay: as above
[6] = biological target: NSD3, endogenous in 293 cells (human (endogenous in HEK293)) (UniProt Q9BZ95); assay: co-IP; endogenous proteins of 293 cells; IP with anti-EHMT1, anti-EHMT2 or anti-NSD3 antibody, immunoblot for the partner

binding (Flag-EHMT2 (mouse)): binds
Substance: N-term NSD3 (1–384) (from UniProt Q9BZ95 1-384) (domain or fragment)

binding [4]: binds | binding [5]: binds weakly
Substance: Flag-EHMT2 (from UniProt Q9Z148 1-1263)

binding [6]: binds
Substance: EHMT1, endogenous in 293 cells (from UniProt Q9H9B1 1-1298)

binding [2]: binds
Substance: NSD3-short isoform (NSD3S), endogenous in V-H9-hESCs (from UniProt Q9BZ95-3 1-645)

The next lines start with the substance.

Substance: NSD3, endogenous in 293 cells (from UniProt Q9BZ95 1-1437)
binding [1]: binds

Substance: NSD3-long isoform (NSD3L), endogenous in V-H9-hESCs (from UniProt Q9BZ95 1-1437)
binding [2]: binds

Substance: Flag-NSD3S (NSD3-short isoform, Flag tagged) (from UniProt Q9BZ95-3 1-645)
binding (V5-EHMT1): binds | binding [3]: binds

Substance: EGFP-NSD3L (NSD3-long isoform fused with EGFP) (from UniProt Q9BZ95 1-1437)
binding (V5-EHMT1): binds | binding (Flag-EHMT2 (mouse)): binds

Substance: NSD3 N-term (1–173) domain (from UniProt Q9BZ95 1-173) (domain or fragment)
binding (Flag-EHMT2 (mouse)): no binding
